# From article PMC4336329 (PLoS ONE, 2015)
# Among all 310,000 compounds or so, about 14,000 (4.5%) showed an effect of 50% or more. Effects have a minus sign here. The list shows a part of the results.
# Target: human ether-à-go-go-related gene (hERG) potassium channel (human, UniProt Q12809)
# Assay: primary screen, population patch clamp on CHO cells stably expressing hERG
# 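Further: peak tail current of the secondary pulse compared with the same well before compound.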
# Sequence of human ether-à-go-go-related gene (hERG) potassium channel (Q12809 whole entry, looked up): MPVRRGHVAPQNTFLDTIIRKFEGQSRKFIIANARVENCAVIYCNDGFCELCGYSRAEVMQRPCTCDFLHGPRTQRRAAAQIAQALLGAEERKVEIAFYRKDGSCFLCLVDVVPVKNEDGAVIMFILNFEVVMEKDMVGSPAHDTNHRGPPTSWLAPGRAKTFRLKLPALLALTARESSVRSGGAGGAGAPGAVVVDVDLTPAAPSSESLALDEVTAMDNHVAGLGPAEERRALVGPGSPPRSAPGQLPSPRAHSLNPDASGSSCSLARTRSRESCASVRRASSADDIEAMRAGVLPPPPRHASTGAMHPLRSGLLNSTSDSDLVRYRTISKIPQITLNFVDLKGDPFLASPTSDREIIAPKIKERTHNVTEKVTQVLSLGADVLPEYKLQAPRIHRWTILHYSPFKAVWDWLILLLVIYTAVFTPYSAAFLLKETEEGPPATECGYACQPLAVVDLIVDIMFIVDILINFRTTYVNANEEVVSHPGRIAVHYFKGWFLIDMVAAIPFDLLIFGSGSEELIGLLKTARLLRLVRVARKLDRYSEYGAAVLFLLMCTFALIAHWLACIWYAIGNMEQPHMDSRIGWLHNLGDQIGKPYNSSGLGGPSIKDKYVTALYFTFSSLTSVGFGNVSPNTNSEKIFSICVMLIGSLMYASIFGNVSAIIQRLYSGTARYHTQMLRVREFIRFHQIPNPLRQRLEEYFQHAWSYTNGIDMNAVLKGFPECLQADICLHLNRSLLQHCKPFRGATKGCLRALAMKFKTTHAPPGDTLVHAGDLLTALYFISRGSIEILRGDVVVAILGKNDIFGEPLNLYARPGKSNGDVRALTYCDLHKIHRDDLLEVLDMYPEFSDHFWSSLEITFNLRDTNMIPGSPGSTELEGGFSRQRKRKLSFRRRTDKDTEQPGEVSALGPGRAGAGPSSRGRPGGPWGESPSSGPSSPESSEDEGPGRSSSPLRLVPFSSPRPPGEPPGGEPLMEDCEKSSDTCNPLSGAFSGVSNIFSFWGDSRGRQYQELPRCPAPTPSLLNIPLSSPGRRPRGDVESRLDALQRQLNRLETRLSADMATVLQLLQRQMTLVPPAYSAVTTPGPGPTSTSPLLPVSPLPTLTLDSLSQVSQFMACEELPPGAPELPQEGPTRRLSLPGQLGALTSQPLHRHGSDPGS
row,Compound,"hERG current change (%, negative = inhibition) at 10uM"
1,CN(C)CCCNC(=S)N(Cc1cccs1)Cc1cc2cc3c(cc2[nH]c1=O)OCCO3,6.79%
2,CCC1COCCS(=O)(=O)N1Cc1ccccc1C (centres unmarked),3.01%
3,Cc1ccccc1CNC(=O)c1ccccc1NS(C)(=O)=O,12.4%
4,COc1ccc(C(=S)N2CCCCC2)cc1Br,9.9%
5,CCCCNC(=O)NC1C(NC(=O)NCCCC)N(C)C(=O)N1C (centres unmarked),15.8%
6,COc1ccc(CNCC(O)COc2ccc(C(C)(C)c3ccccc3)cc2)cc1.O=C(O)C(=O)O (centres unmarked),-12.3%
7,CCOc1ccc(C(=O)Nc2ccc(N3CCN(C(C)=O)CC3)cc2)cc1[N+](=O)[O-],-45.5%
8,CSc1ccc(CN(C)C(=O)C2CCN(C(=O)Nc3ccccc3)CC2)cc1,-67.4%
9,COc1ccc(C/C(N)=N/OC(=O)c2ccc(Cl)cc2)cc1,11.5%
10,Cc1cc(CNC(=O)COc2c(F)c(F)cc(F)c2F)c2ccccc2n1,7.35%
11,O=C(c1cc([N+](=O)[O-])ccc1N1CCOCC1)N1CCN(S(=O)(=O)c2ccc(F)cc2)CC1,-32.5%
12,Cl.c1cc(Nc2ncnc3sc4c(c23)CCC4)ccn1,19.3%
13,C/C(=N\NC(=O)c1ccc(OC2CCCC2)cc1)c1ccc(O)cc1,12%
14,CC1CC(C)CN(S(=O)(=O)c2ccc(NC(=O)C3COc4ccccc4O3)cc2)C1 (centres unmarked),15.5%
15,COc1ccc(NC(=O)CC2C(=O)NC3CCCCC3N2C(=O)c2ccc(F)cc2)cc1 (centres unmarked),13.8%
16,CCC(=O)Nc1cccc(NC(=S)NC(=O)c2ccc(Cl)cc2Cl)c1,3.21%
17,COc1ccccc1/C=C(/C(=O)OCC(N)=O)c1ccccc1,-5.21%
18,Cc1cc(N2CCN(C/C=C/c3ccccc3)CC2)n2ncnc2n1,-71.5%
19,O=C(Cn1cnc2c(nnn2-c2ccccc2)c1=O)NCc1ccc(F)cc1,3.39%
20,Cc1ccc2cc(CCNC(=O)CC(C)C)c(=O)[nH]c2c1,-1.02%
21,CC1C/C(=C/c2cccs2)C(=O)/C(=C/c2cccs2)C1 (centres unmarked),-11.1%
22,CC1CN(C)C(C)C/C1=N/Oc1ccccc1[N+](=O)[O-].Cl (centres unmarked),-26.5%

row,Compound,"hERG current change (%, negative = inhibition) at 10uM"
1,O=C1Nc2ccccc2C(O)(C(=O)NCc2ccc3c(c2)OCO3)N1c1ccc(Cl)c(Cl)c1 (centres unmarked),20.6%
2,O=S(=O)(Nc1cccc(-n2cnnn2)c1)c1ccccc1F,17%
3,COc1ccccc1CNCC(c1ccccc1)c1ccccc1,-42.4%
4,O=C(N/N=C/c1ccoc1)c1cc(Br)ccc1O,14.2%
5,COc1ccc(CCNC(=O)c2ccccc2SC)cc1,17.5%
6,Cc1ccccc1NC(=S)NNC(=O)c1ccoc1C,-0.225%
7,CCOc1ccccc1NC(=O)c1cnc(NS(=O)(=O)c2ccccc2)nc1,17.8%
8,Cc1ccc(OC(C)C(=O)O)cc1C (centres unmarked),-3.33%
9,COc1ccc2cc(CCNC(=O)c3cccc([N+](=O)[O-])c3)c(=O)[nH]c2c1,-79.2%
10,CC(C)(C)CC(=O)NC(=S)N1CCCCCC1,7.63%
11,C=CCN(Cc1nc(-c2ccccc2)no1)C(=O)c1ccoc1C,-4.69%
12,CN(C)C=O.CN(C)S(=O)(=O)c1cccc(NC(=O)CSc2ncnc3ccccc23)c1,-29%
13,CCCCC1(C)NC(=S)N2N1C(=S)NC2(C)CCCC (centres unmarked),15.1%
14,CC(C)Cc1cc(CN2CCCC(CO)(Cc3cccc(Cl)c3)C2)[nH]n1 (centres unmarked),-52.5%
15,CC(C(=O)Nc1ncccn1)(c1ccccc1)c1ccccc1,2.84%
16,Cc1ccc(Cn2ncc3c(N4CCN(CC#N)CC4)ncnc32)cc1,-6.38%
17,Nc1nnn(CC(=O)N/N=C/c2cccc3ccccc23)n1,-5.39%
18,CCN(CC)c1ccc(C(=O)O)cc1,7.74%
19,CC(C)C(=O)NC(=S)Nc1ccc(S(=O)(=O)N2CCCC2)cc1,8.95%
20,CC1CCC(=NNc2ccc(C(F)(F)F)cc2[N+](=O)[O-])CC1 (centres unmarked),15.2%
21,O=C(CCSCc1ccccc1Cl)NC1CCCCC1,44.9%
22,Cc1ccc(NC(=O)CNC(=O)Cn2cnc3sc(C)c(C)c3c2=O)cc1F,3.52%
